This is an account of results in patent publication US20140187505A1, “Cardiac Glycosides to Treat Cystic Fibrosis and Other IL-8 Dependent Disorders” (priority 2002, published 2014).

Some results are limits rather than exact numbers.

The experiment has as its system IL-8 secretion from cystic fibrosis lung epithelial IB3-1 cells. Particulars: suppression of IL-8 secretion from CF lung epithelial cells.

In the case of `CC(=O)O[C@H]1CC[C@@]2(C)[C@H](CC[C@@H]3[C@@H]2C[C@@H](OC(C)=O)[C@]2(C)[C@@H](C4=CC(=O)OC4)CC[C@]32O)C1` (single isomer, unassigned; diac) [digoxigenin3,12 diAC, digoxigenin 3,12 diAC], the “Potency relative to digitoxin, %” value was <<0.1, %. The same measure for `CC(=O)O[C@H]1CC[C@]2(C=O)[C@H]3CC[C@]4(C)[C@@H](C5=CC(=O)OC5)CC[C@]4(O)[C@@H]3CC[C@]2(O)C1` [acetylstrophanthdin, acetyl-strophanthidin]: 0.8%; for `C[C@]12CC[C@H](O)C[C@H]1CC[C@@H]1[C@@H]2CC[C@]2(C)[C@@H](C3=CC(=O)OC3)CC[C@]12O` [digitoxigenin]: 1.2%.

Take `C[C@]12CC[C@H](O)C[C@H]1CC[C@@H]1[C@@H]2C[C@@H](O)[C@]2(C)[C@@H](C3=CC(=O)OC3)CC[C@]12O` [digoxigenin]: the “Potency relative to digitoxin, %” value is recorded as 2.6%. The same measure for `CO[C@H]1C[C@H](O[C@H]2CC[C@@]3(C)[C@H](CC[C@@H]4[C@@H]3CC[C@]3(C)[C@@H](C5=CC(=O)OC5)[C@@H](OC(C)=O)C[C@]43O)C2)O[C@@H](C)[C@@H]1O` [oleandrin]: 43%.
